# Source: paper PMC6919601, “Identification of Plasmodium dipeptidyl aminopeptidase allosteric inhibitors by high throughput screening” (PLoS ONE, 2019)
# “And” between values parts separate entries of the source, which are not always exact repeats. Equal entries are not always repeated. The campaign covered roughly 110,000 compounds. About 230 (0.21%) showed an effect of 50% or more. The list shows a part of the results.
# Target: DPAP1 (Plasmodium falciparum, UniProt Q8IIJ9)
# Test: primary screen, percent inhibition; read by cleavage of a fluorogenic dipeptide substrate; higher = more effect of the substance
# Design: species or system P. falciparum D10 trophozoite lysates; single well
# 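Further: 30 min substrate incubation versus DMSO and 10 µM JCP410 controls.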
# Chain of DPAP1 (Q8IIJ9 whole entry, looked up): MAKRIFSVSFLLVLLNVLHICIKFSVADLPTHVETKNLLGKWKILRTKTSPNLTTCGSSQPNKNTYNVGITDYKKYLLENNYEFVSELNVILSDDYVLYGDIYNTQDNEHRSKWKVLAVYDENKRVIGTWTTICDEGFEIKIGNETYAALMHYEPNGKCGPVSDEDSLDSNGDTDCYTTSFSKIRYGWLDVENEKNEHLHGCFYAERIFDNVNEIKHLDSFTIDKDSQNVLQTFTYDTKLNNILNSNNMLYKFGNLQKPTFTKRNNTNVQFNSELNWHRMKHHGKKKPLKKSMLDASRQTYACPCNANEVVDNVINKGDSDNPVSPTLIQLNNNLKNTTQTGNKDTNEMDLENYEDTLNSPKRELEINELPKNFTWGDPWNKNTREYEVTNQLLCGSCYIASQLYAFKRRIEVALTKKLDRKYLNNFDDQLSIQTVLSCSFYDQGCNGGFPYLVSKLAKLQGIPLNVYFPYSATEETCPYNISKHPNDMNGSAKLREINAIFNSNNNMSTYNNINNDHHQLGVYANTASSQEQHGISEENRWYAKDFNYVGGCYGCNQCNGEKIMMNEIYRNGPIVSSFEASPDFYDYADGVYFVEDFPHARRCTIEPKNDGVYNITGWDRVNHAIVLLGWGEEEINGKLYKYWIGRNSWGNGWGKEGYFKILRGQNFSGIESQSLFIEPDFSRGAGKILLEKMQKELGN
row,SMILES,% Inhibition @ 10 uM
1,COc1ccc(OC)c(CCNC(=O)Cn2ncc3c2-c2cc(C)ccc2OC3)c1,-2.34%
2,O=C1NC(=S)S/C1=C/c1ccc(-c2ccccc2Cl)o1,5.37%
3,O=C(NCc1cccs1)C1CCCN1S(=O)(=O)c1ccc2[nH]c(-c3ccccc3)nc2c1 (centres unmarked),7.44%
4,O=C(c1ccc(Cn2c(SCc3ccccc3F)nc3ccncc32)cc1)N1CCCC1,2.99%
5,O=C(O)C1CCC(c2ccccc2)CC1 (centres unmarked),3.03%
6,Cc1ccc(NC(=O)COc2ccc(Cl)cc2C)cc1F,0.755%
7,COc1ccc(O)c(C2c3[nH]c4ccccc4c3CC3C(=O)N(C)C(=S)N32)c1 (centres unmarked),21.2%
8,Cc1ccc(Nc2nc3ccccc3nc2NS(=O)(=O)c2ccc(N)cc2)cc1,-5.5%
9,COc1ccc(C2CC(=O)N3CN(Cc4ccccc4)CSC3=C2C#N)c(OC)c1 (centres unmarked),32.1%
10,Cc1nc2c(c(C)nn2C)c(C)c1CCC(=O)NCCCN1CCC(Cc2ccccc2)CC1,-6.09%
11,O=C(Nc1cccnc1Cl)c1noc2c1COc1ccccc1-2,3.3%
12,COc1ccc(-c2nc(SCC(=O)O)c3c(=O)n(C)c(=O)n(C)c3n2)cc1,3.96%
13,C=CCOc1ccc(C(=O)C2=C(O)C(=O)N(CCCN(C)C)C2c2ccc(F)cc2)c(C)c1 (centres unmarked),-3.75%
14,Nc1ccc(/C=C/c2ccccc2)c(S(=O)(=O)Oc2ccccc2)c1,0.937%
15,CC1CCN(C(=O)C2CCN(S(=O)(=O)c3c[nH]cn3)CC2)CC1,1.23%
16,O=C(O)c1ccccc1C(=O)Nc1ccc(-c2cn3ccsc3n2)cc1,4.11%
17,CCOC(=O)N1CCC(NC(=O)C2c3ccccc3C(=O)N(C)C2c2cccs2)CC1 (centres unmarked),3%
18,c1ccn2cc(-c3ccc4c(c3)OCO4)cc2c1,-2.88%
19,Cc1nn(Cc2ccc(C(=O)Nc3ccc(Cn4cccn4)cc3)o2)c(C)c1Cl,-0.988%
20,CCc1ccc(C2C(C#N)=C(N)OC3=C2C(=O)CC(C)(C)C3)cc1 (centres unmarked),-0.725%
21,Cc1cc(C(=O)CN2CCOCC2)c(C)n1-c1ccc(F)cc1,4.77%
22,CN(Cc1ccco1)C(=O)Cn1nc(-c2ccc(Cl)cc2)ccc1=O,-5.43%
23,CCn1c(C(=O)O)c(CNCc2ccc(C)o2)c2ccc(OC)cc21,3.12%
24,CCCNC(=O)C1CCN(C(=O)c2cc3sccc3n2C)CC1,1.8%
25,CC(C)c1ccc(N2C(=O)c3cccnc3C2=O)cc1,-5.82%

row,SMILES,% Inhibition @ 10 uM
1,c1ccc(-c2ncn3c2CCCCC3)cc1,-1.64%
2,Cc1ccc(Cn2ncc3c(NCCN4CCOCC4)ncnc32)cc1,-3.72%
3,CCCCNC(=O)CCCN1C(=O)CSc2c1c(C)nn2-c1ccccc1,-0.0309%
4,COc1ccc(NC(=O)C(=O)NC2CCCC2)c(OC)c1,2.41%
5,Cc1ccccc1C(=O)Nc1cccc(-c2nc3cc(Cl)ccc3o2)c1,-1.48%
6,CC1=NN(c2nc(-c3ccccc3)cs2)C(=O)C1C (centres unmarked),4.67% and 2.64%
7,CCOc1ccc(Cn2cc(F)c(=O)[nH]c2=O)cc1,5.52%
8,COc1ccc(CCNc2nc3ccccc3c3nnc(C)n23)cc1OC,4.47%
9,CC1CN(C)C(C)c2c1oc1ccc(N)cc21 (centres unmarked),-0.833%
10,O=C(COc1ccccc1/C=C1/SC(Nc2ccccc2)=NC1=O)Nc1ccccc1,-1.65%
11,COC(=O)c1sccc1NC(=O)Cn1ncc2c1-c1ccccc1OC2,-9.98%
12,COc1ccc(C(=O)NC2C3CC4CC(C3)CC2C4)cc1Br (centres unmarked),-7.28%
13,CCCc1nc(Nc2nc3ccccc3s2)ncc1C(=O)OCC,3.36%
14,Cc1cc(O)oc2nnc(C)c1-2,-6.62%
15,Cc1cc(=O)oc2c1c(C)nn2-c1ccccc1,3.44%
16,Cn1c(SCC(=O)Nc2ccccc2)nc2sc3c(c2c1=O)CCCC3,2.46%
17,Cn1nc(C(=O)NCCCN2CCOCC2)c2c1-c1ccccc1S(=O)(=O)C2,0.372%
18,Cc1ccnc(NC(=O)c2cc3ccc4cccnc4c3[nH]2)c1,1.41%
19,CCN(CC)CCNc1ncnc2c1cnn2C,4.28%
20,c1ccc2c(c1)COC(CN1CCCCC1)OC2,-2.8%
21,O=C(CSc1nnc(-c2cccnc2)n1Cc1ccccc1)c1ccc(Br)cc1,-3.75%
22,Cc1ccc(CSc2nc3nncc-3c(O)n2-c2ccc(C)cc2)cc1,2.9%
23,Cc1ccc(C2C(C#N)=C(N)OC3=C2C(=O)CC(C)(C)C3)s1 (centres unmarked),4.26%
24,COc1cccc(C2C3=C(O)CCCC3=NC(C)=C2C(=O)Nc2cccc(C)n2)c1OC (centres unmarked),1.4%
25,Cc1ccc(-c2cc(C(=O)Nc3ccncc3)c3ccccc3n2)cc1,-0.95%
